Experimental findings from article PMC6602471 are described below.

This is one part of the list. At the low end of the ranking the order means little.

The assay deals with T1, ETS1 (UniProt P14921).
T1 sequence: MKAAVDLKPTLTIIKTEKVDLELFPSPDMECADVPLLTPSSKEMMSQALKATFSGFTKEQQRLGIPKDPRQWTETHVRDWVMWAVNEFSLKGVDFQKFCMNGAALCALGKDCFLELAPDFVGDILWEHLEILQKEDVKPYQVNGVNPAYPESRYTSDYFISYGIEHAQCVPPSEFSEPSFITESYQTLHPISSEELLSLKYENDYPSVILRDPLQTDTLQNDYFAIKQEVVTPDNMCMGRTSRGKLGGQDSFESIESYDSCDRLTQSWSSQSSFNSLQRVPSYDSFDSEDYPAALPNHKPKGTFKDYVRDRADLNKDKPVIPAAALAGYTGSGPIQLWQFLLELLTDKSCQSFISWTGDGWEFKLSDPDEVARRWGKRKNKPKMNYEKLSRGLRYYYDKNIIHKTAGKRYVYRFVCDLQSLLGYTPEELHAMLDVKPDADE
Briefly: custom PBM. To be noted: custom protein-binding microarray; buffer, salt, pH and temperature not stated; high values mean tight binding; double strand, one strand shown.
In the case of “GATTAATTTCTGCCCTTATTCGCACGTGCCATCACAGTCTTGATTCGCTTGACGCTGCTG”, the binding signal (log fluorescence intensity) stood at 8.06.

Consider “GTCTATAGGATCCCATCCAACACACGTGTTAAAATGGTCTTGATTCGCTTGACGCTGCTG”, for which the binding signal (log fluorescence intensity) is 8.42. With “TAAAGAGAAGACGGTTGTGGTAGTTCCGGGTATTAAGTCTTGATTCGCTTGACGCTGCTG”, the binding signal (log fluorescence intensity) was 8.26.

For the sequence “GGGAAAAGGCCCAGGGTAACACCGGAAGTGGGCTTAGTCTTGATTCGCTTGACGCTGCTG”, the binding signal (log fluorescence intensity) came out at 11.9.

For “CGGAAGTGTCGTAAACGACGGATATCCGGTTCTTCTGTCTTGATTCGCTTGACGCTGCTG”, the binding signal (log fluorescence intensity) was determined as 12.4. To “CGGAAGTGTCGTAAACGTCGCATATCCGGTTCTTCTGTCTTGATTCGCTTGACGCTGCTG” belongs 12.2; to “GCTGCTGCGGTGCATACCCCACCGGATGTTACCCCGGTCTTGATTCGCTTGACGCTGCTG”, 9.95. As for “GTGTATAGGATCCCATCCAACACACGCGTTAAAATGGTCTTGATTCGCTTGACGCTGCTG”, the binding signal (log fluorescence intensity) amounted to 8.37. For “CACACTTTTTACAGTAATGTAGCACGCGTAACTCCTGTCTTGATTCGCTTGACGCTGCTG” the value was 8.35; for “GTGTATAGGATCCCATTCAACACACGTGTTAAAATGGTCTTGATTCGCTTGACGCTGCTG”, 8.37. To “GGAAAAAGGCCCAGGGTAACACTGGAAGTGGGCTTAGTCTTGATTCGCTTGACGCTGCTG” belongs 8.22; to “GTGTATAGGATCCCATCCAACACACGTATTAAAATGGTCTTGATTCGCTTGACGCTGCTG”, 8.25; to “GTGTATAGGATCCCATCCAACACACGGGTTAAAATGGTCTTGATTCGCTTGACGCTGCTG”, 8.23. To “TGTCGGGTAAGGGAATGTAGATCACGTGAATGAGAAGTCTTGATTCGCTTGACGCTGCTG” belongs 8.19. As to “TGTCGGGTAAGGGAATGCAGATCACGTGAATGAAAAGTCTTGATTCGCTTGACGCTGCTG”, the binding signal (log fluorescence intensity) amounted to 8.31.

Take “TGTCGGGTAACGGAATGTAGATCACGTGAATGAAAAGTCTTGATTCGCTTGACGCTGCTG”: the binding signal (log fluorescence intensity) amounted to 8.29. Consider “TAAAGGGAAGAAGGTTGTGGTAGTTCCGGGTATTAAGTCTTGATTCGCTTGACGCTGCTG”, for which the binding signal (log fluorescence intensity) is 8.45. For “CACAATTTTTAAAGTAATGTAGCACGCGTAACTCCTGTCTTGATTCGCTTGACGCTGCTG” the value was 8.18; for “TCCGGCTACCAGCTCCACCCACTACAGGCCTTGTAGGTCTTGATTCGCTTGACGCTGCTG”, 8.3; for “CGGAAGTGTCTTAAACGTCGGATATCCGGTTCTTCTGTCTTGATTCGCTTGACGCTGCTG”, 11.6. For “TCCGGCTACCAGCTCCACCCACTTCAGGCCTTATAGGTCTTGATTCGCTTGACGCTGCTG” the value was 8.46; for “GGTCGGGTAAGGGAATGTAGATCACGTGAATGAAAAGTCTTGATTCGCTTGACGCTGCTG”, 8.16; for “TCCGGCTACCAGCTCCACCCACTTCAGGACTTGTAGGTCTTGATTCGCTTGACGCTGCTG”, 8.2. For “GACTAATTTCTGCCCTTATTCGCACGTGCCATAACAGTCTTGATTCGCTTGACGCTGCTG” the value was 8.22; for “CACAATTTTTACAGTACTGTAGCACGCGTAACTCCTGTCTTGATTCGCTTGACGCTGCTG”, 8.28; for “CACAATTTTTACAGTAATGTAGCATGCGTAACTCCTGTCTTGATTCGCTTGACGCTGCTG”, 8.22. Take “GATTAATTTCTGCCCTTATTCGCACGTGCCACAACAGTCTTGATTCGCTTGACGCTGCTG”: the binding signal (log fluorescence intensity) amounted to 8.16. To “CAGCATAGGACTTCTTCCCTGAAGTAATTGATAACCGTCTTGATTCGCTTGACGCTGCTG” belongs 8.12; to “TGTGGGGTAAGGGAATGTAGATCACGTGAATGAAAAGTCTTGATTCGCTTGACGCTGCTG”, 8.1; to “CACAATTTTTACAGTAATGTAGCACGCGTAACTCCGGTCTTGATTCGCTTGACGCTGCTG”, 8.22. On to “TGTCGGGTAAGAGAATGTAGATCACGTGAATGAAAAGTCTTGATTCGCTTGACGCTGCTG”, for which the binding signal (log fluorescence intensity) was found to be 7.97.

“CAGCATGGGACTTCTTCCCTGAAGCAATTGATAACCGTCTTGATTCGCTTGACGCTGCTG”: the binding signal (log fluorescence intensity) worked out at 8.29. To “TGTCGGGTAAGGGAATGTAGAGCACGTGAATGAAAAGTCTTGATTCGCTTGACGCTGCTG” belongs 8.04; to “TGTCGGGTAAGGGAATGTAGATCACGAGAATGAAAAGTCTTGATTCGCTTGACGCTGCTG”, 8.19; to “TGTCGGTTAAGGGAATGTAGATCACGTGAATGAAAAGTCTTGATTCGCTTGACGCTGCTG”, 8.38. To “GATTAATTTCTGCCCTTATTCGCACGTGCCAAAACAGTCTTGATTCGCTTGACGCTGCTG” belongs 8.27. For “GGAAAAAGGCCGAGGGTAACACCGGAAGTGGGCTTAGTCTTGATTCGCTTGACGCTGCTG” the value was 12; for “GATTAATTTCTGCCCTTATTCCCACGTGCCATAACAGTCTTGATTCGCTTGACGCTGCTG”, 8.23; for “TACTGATTTATATATGCGAATGCACATGAATAGACCGTCTTGATTCGCTTGACGCTGCTG”, 8.08. Regarding “TGTCGGGAAAGGGAATGTAGATCACGTGAATGAAAAGTCTTGATTCGCTTGACGCTGCTG”, the binding signal (log fluorescence intensity) was determined as 8.16. For “GGAAAAAGGCCCACGGTAACACCGGAAGTGGGCTTAGTCTTGATTCGCTTGACGCTGCTG” the value was 12.2. Turning to “TCAGGCTACCAGCTCCACCCACTTCAGGCCTTGTAGGTCTTGATTCGCTTGACGCTGCTG”, the binding signal (log fluorescence intensity) was 8.33.

Turning to “CACAATTTTTACAGTAATGTAGCACGCGTAGCTCCTGTCTTGATTCGCTTGACGCTGCTG”, the binding signal (log fluorescence intensity) was found to be 8.34.

Consider “GGGAAGTGTCGTAAACGTCGGATATCCGGTTCTTCTGTCTTGATTCGCTTGACGCTGCTG”, for which the binding signal (log fluorescence intensity) came out at 11.9. For “TAAAGGGAAGACGGTTGTGGTCGTTCCGGGTATTAAGTCTTGATTCGCTTGACGCTGCTG” the value was 8.44. To “CAGCATAGGACTTCTTCCCTGAAGCAATTGATGACCGTCTTGATTCGCTTGACGCTGCTG” belongs 8.27; to “CAGCATAGAACTTCTTCCCTGAAGCAATTGATAACCGTCTTGATTCGCTTGACGCTGCTG”, 8.08. To “TAAAGGGAAGACGGTTGTGGTAGTTCCGGGTATGAAGTCTTGATTCGCTTGACGCTGCTG” belongs 8.65; to “GCTGCTCCGGTGCATACCCCACCGGATGTGACCCCGGTCTTGATTCGCTTGACGCTGCTG”, 11.4; to “TGTCGAGTAAGGGAATGTAGATCACGTGAATGAAAAGTCTTGATTCGCTTGACGCTGCTG”, 8.16.

On to “GGAAAAAGGCCCAGGTTAACACCGGAAGTGGGCTTAGTCTTGATTCGCTTGACGCTGCTG”, for which the binding signal (log fluorescence intensity) came to 12. Consider “TCCGGCTACCAGCTCCGCCCACTTCAGGCCTTGTAGGTCTTGATTCGCTTGACGCTGCTG”, for which the binding signal (log fluorescence intensity) worked out at 8.21. Take “CACAATTTTTACAGTAATGTAGAACGCGTAACTCCTGTCTTGATTCGCTTGACGCTGCTG”: the binding signal (log fluorescence intensity) amounted to 8.38.

“GTGTCTAGGATCCCATCCAACACACGTGTTAAAATGGTCTTGATTCGCTTGACGCTGCTG”: the binding signal (log fluorescence intensity) worked out at 8.15. Turning to “GCTGCAGCGGTGCATACCCCACCGGATGTGACCCCGGTCTTGATTCGCTTGACGCTGCTG”, the binding signal (log fluorescence intensity) was 10.4. For the sequence “GCTGCTGCGGTGCATACACCACCGGATGTGACCCCGGTCTTGATTCGCTTGACGCTGCTG”, the binding signal (log fluorescence intensity) worked out at 10.2. For “TCCGGCTACCAGCTCCACCCTCTTCAGGCCTTGTAGGTCTTGATTCGCTTGACGCTGCTG” the value was 8.28.

Regarding “GCTGCTGCGGTGAATACCCCACCGGATGTGACCCCGGTCTTGATTCGCTTGACGCTGCTG”, the binding signal (log fluorescence intensity) was determined as 10.3. To “GGAAAAAGGCCCAGGGTAACACCGGAAATGGGCTTAGTCTTGATTCGCTTGACGCTGCTG” belongs 11.5.

For the sequence “TCCGGCTTCCAGCTCCACCCACTTCAGGCCTTGTAGGTCTTGATTCGCTTGACGCTGCTG”, the binding signal (log fluorescence intensity) worked out at 8.68. To “CAACATAGGACTTCTTCCCTGAAGCAATTGATAACCGTCTTGATTCGCTTGACGCTGCTG” belongs 8.25; to “TCCGGCTACCAGCTCCACCCACTTCAGGCGTTGTAGGTCTTGATTCGCTTGACGCTGCTG”, 8.21; to “GCAAAAAGGCCCAGGGTAACACCGGAAGTGGGCTTAGTCTTGATTCGCTTGACGCTGCTG”, 11.9. To “GTGTATAGGATCCCATCCAACACACGTGTTAAAATCGTCTTGATTCGCTTGACGCTGCTG” belongs 8.04; to “CAGGATAGGACTTCTTCCCTGAAGCAATTGATAACCGTCTTGATTCGCTTGACGCTGCTG”, 8.23. For “GATTAATTTCTGCCCTTATTCGCAAGTGCCATAACAGTCTTGATTCGCTTGACGCTGCTG” the value was 8.32. Turning to “AATTAATTTCTGCCCTTATTCGCACGTGCCATAACAGTCTTGATTCGCTTGACGCTGCTG”, the binding signal (log fluorescence intensity) stood at 8.33.

With “TCCGGTTACCAGCTCCACCCACTTCAGGCCTTGTAGGTCTTGATTCGCTTGACGCTGCTG”, the binding signal (log fluorescence intensity) was found to be 8.2. To “TACTGACTTATATATGCGAATGCACGTGAATAGACCGTCTTGATTCGCTTGACGCTGCTG” belongs 8.14. To “CAGCATAGGACTTCTTCCCTGAAGCAGTTGATAACCGTCTTGATTCGCTTGACGCTGCTG” belongs 8.35; to “TAATGGGAAGACGGTTGTGGTAGTTCCGGGTATTAAGTCTTGATTCGCTTGACGCTGCTG”, 8.6.

On to “TACTGACTTATATATGCGAATGCACATGAATGGACCGTCTTGATTCGCTTGACGCTGCTG”, for which the binding signal (log fluorescence intensity) amounted to 8.43.

As to “CAGCATAGGACTTCTTCCCTGAAGCAATTGAAAACCGTCTTGATTCGCTTGACGCTGCTG”, the binding signal (log fluorescence intensity) came to 8.4. To “CTGGCACTTGACCCAACTCTGCCACGTGGGTCGTTTGTCTTGATTCGCTTGACGCTGCTG” belongs 8.08; to “TCCGGCTACCAGCTTCACCCACTTCAGGCCTTGTAGGTCTTGATTCGCTTGACGCTGCTG”, 8.4; to “CACAATTTTTACAGTAATCTAGCACGCGTAACTCCTGTCTTGATTCGCTTGACGCTGCTG”, 8.18. For “CTGGGACTTGACCCAACTCTGCCACATGGGTCGTTTGTCTTGATTCGCTTGACGCTGCTG” the value was 8.32. For “GATTAATTTCTGTCCTTATTCGCACGTGCCATAACAGTCTTGATTCGCTTGACGCTGCTG” the value was 8.22. As for “CACAATTTTTACAGTAATGTAGCACGCGCAACTCCTGTCTTGATTCGCTTGACGCTGCTG”, the binding signal (log fluorescence intensity) came out at 7.97. To “TAAAGGGAAGACGGTTGTGGTAGTTCCGCGTATTAAGTCTTGATTCGCTTGACGCTGCTG” belongs 8.3; to “CACAATTTTTACAGTAATGTAGCACGCGTACCTCCTGTCTTGATTCGCTTGACGCTGCTG”, 8.29.
